Source: PubChem BioAssay AID686978 (National Center for Advancing Translational Sciences (NCATS), 2013)
“And” between values parts separate entries of the source, which are not always exact repeats. Equal values may be shown once. Screen size: about 420,000 compounds; about 64,000 (15%) were called active. Inconclusive results, whose numbers are uncertain, are shown with a selection of clear calls. Calls come from the whole dose curve; as a rule, active = well fitted inhibition curve with a large enough effect; inconclusive = small, poorly fitted or top-dose-only effect; inactive = flat fitted curve, though single readings scatter. Where the call is inconclusive, the potency comes from a doubtful curve fit.
% is set by controls: 0 for no effect and ±100 for the full control effect; potency is the fitted concentration of half-maximal effect; tags give direction and shape of the fitted curve.

Assay: qHTS for Inhibitors of human tyrosyl-DNA phosphodiesterase 1 (TDP1): qHTS in cells in absence of CPT; note: nearly all actives have a fitted effect of over 55% in size
Settings: DT40 Tdp1-/- hTDP1 cells, no CPT, ATP luminescence, 48 h; activity change, negative = growth inhibition: at 46.2 µM (top of the series) unless noted
How it was run: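 No-CPT arm: Tdp1-/-;hTDP1 DT40 cells (400/well) plus compounds, incubated ≥48 hr at 37 °C. Readout CellTiter-Glo luminescence.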
With `N#Cc1cccc(S(=O)(=O)NCC(=O)OCC(=O)NCc2ccccc2)c1` the “activity change, negative = growth inhibition” value was inactive: 12.6%.
For `O=C(c1nc[nH]c1C(=O)N1CCc2ccccc2C1)N1CCc2ccccc2C1`, the Potency was inconclusive: 29.1 µM [inhibitor, single point].
In the case of `CCOc1ccccc1CNC(=O)CCCn1c(=O)c2cccn2c2cccnc21`, the Potency was inconclusive: 20.6 µM [inhibitor, single point].
For `CC(=O)N1CCC(=NNc2ccc(S(N)(=O)=O)cc2[N+](=O)[O-])CC1`, the “activity change, negative = growth inhibition” value was inactive: 2.33%.
For `CCCCN1CC[C@H]2C=CC[C@@H](C(=O)NCCc3ccccc3)[C@H]2C1=O`, the Potency was “inactive and inconclusive: 7.31 µM [inhibitor, partial curve]”.
In the case of `N#Cc1c(N)n(-c2cccc(O)c2)c2nc3ccccc3nc12`, the “activity change, negative = growth inhibition” value was inactive: -27.3%.
In the case of `CCC(=O)Nc1nc(=S)ss1`, the Potency was inconclusive: 18.4 µM [inhibitor, single point].
With `CCc1c(C(=O)Nc2ccc(C)c(C)c2)[nH]c(C)c1C(C)=O` the Potency was inconclusive: 23.1 µM [inhibitor, single point].
In the case of `Cc1ccc(N(CC(=O)NCCSc2nc3ccccc3s2)S(=O)(=O)c2ccccc2)c(C)c1`, the Potency was active: 25.9 µM.
In the case of `N#Cc1ccccc1CSc1nc2ccsc2c(=O)n1Cc1ccccn1`, the Potency was inconclusive: 20.6 µM [inhibitor, single point].
For `COc1ccccc1N1CCN(C(=O)c2ccc(NS(=O)(=O)c3ccc(C)cc3)cc2)CC1`, the Potency was inconclusive: 8.2 µM [inhibitor, partial curve].
For `O=C(NCc1ccco1)c1cccc(-c2ccc3nccn3c2)c1`, the Potency was inconclusive: 23.1 µM [inhibitor, single point].
In the case of `COc1ccc(-c2cccc(NS(=O)(=O)c3cccs3)c2)nn1`, the Potency was inconclusive: 29.1 µM [inhibitor, single point].
For `Cc1cnc(NC(=O)c2sc(Nc3ccccc3)nc2N)o1`, the Potency was inconclusive: 29.1 µM [inhibitor, single point].
In the case of `O=C(NCCCN1CCCC1=O)C(=O)NCC1OCCN1S(=O)(=O)c1ccc(Br)cc1` (stereo not drawn), the Potency was active: 0.411 µM.
In the case of `CN(CCc1ccccc1)C(=O)c1cccc(NC(=O)Cc2ccc([N+](=O)[O-])cc2)c1`, the Potency was inconclusive: 29.1 µM [inhibitor, single point].
In the case of `COc1ccc(NC(=O)c2sc3nc(Cc4ccccc4)cc(C(F)(F)F)c3c2N)cc1OC`, the Potency was inconclusive: 29.1 µM [inhibitor, single point].
With `Clc1ccc(N2CCN(Cc3nnc(-c4ccc5c(c4)OCO5)o3)CC2)cc1` the Potency was active: 18.4 µM.
For `CN(Cc1ccccc1)CC(O)COc1ccc(CNCCOc2cccnc2)cc1` (stereo not drawn), the “activity change, negative = growth inhibition” value was inactive: -11.8%.
In the case of `O=C(CCn1c(=S)oc2ccccc21)Nc1ccc2c(c1)OCCO2`, the activity change, negative = growth inhibition was inconclusive: -36.7% [inhibitor].
In the case of `COC(=O)c1ccc(C(NC(=O)OCc2ccccc2)/C(C)=C/[C@@H](C)C(=O)NCc2ccc(OC)c(OC)c2)cc1` (stereo partly drawn), the Potency was inconclusive: 23.1 µM [inhibitor, single point].
In the case of `Cc1cccc(C(=O)NCC(=O)OCC(=O)c2ccc(Cl)s2)c1`, the “activity change, negative = growth inhibition” value was inactive: 9.83%.
With `O=C(Cn1cnc2ccccc2c1=O)N(Cc1ccco1)c1ccc(O)cc1` the Potency was inconclusive: 20.6 µM [inhibitor, single point].
In the case of `CC1CC(C)CN(c2ncc3c(n2)CC(c2ccc(Cl)cc2)CC3=O)C1` (stereo not drawn), the Potency was active: 8.2 µM.
In the case of `CNC(=O)C[C@H]1C(=O)N(Cc2ccccc2)C[C@@H]1C`, the “activity change, negative = growth inhibition” value was inactive: -13.8%.
With `Cc1nc(NC(=O)CSc2nnc(Cn3nnc4ccccc43)n2C)sc1C` the Potency was inconclusive: 29.1 µM [inhibitor, single point].
In the case of `CC1CC1c1ccc(/C=C(\C#N)C(=O)Nc2ccccc2Cl)o1` (stereo not drawn), the Potency was inconclusive: 20.6 µM [inhibitor, single point].
In the case of `O=C(C1CCCO1)N1CCN(C(=S)NC2CC2)CC1` (stereo not drawn), the “activity change, negative = growth inhibition” value was inactive: 1.54%.
With `Nc1nonc1-n1nnc(C(=O)N/N=C/c2ccc(OCc3cccc(Cl)c3)cc2)c1CN1CCCCC1` the Potency was inconclusive: 23.1 µM [inhibitor, single point].
In the case of `O=C(CN1CCCCCCC1)N/N=C/c1ccc([N+](=O)[O-])o1`, the Potency was inconclusive: 8.2 µM [inhibitor, single point].
With `CCCCN(CC)C(=O)c1c[nH]c2ccc(S(=O)(=O)Nc3cccc(OC)c3)cc2c1=O` the Potency was inconclusive: 29.1 µM [inhibitor, single point].
In the case of `Cc1ccc(CCNC(=O)C2CCN(S(=O)(=O)c3c(C)nn(C)c3C)CC2)cc1`, the Potency was inconclusive: 29.1 µM [inhibitor, single point].
For `COc1ccc(NC(=O)C2=C(C)Nc3c(C(=O)Nc4ccc(C)cc4)cnn3C2c2cccc(Cl)c2)cc1` (stereo not drawn), the “activity change, negative = growth inhibition” value was inactive: -26.7%.
For `CCOC(=O)N1CCN(S(=O)(=O)c2ccc(C(=O)Nc3nc4ccccc4s3)cc2)CC1`, the Potency was inconclusive: 23.1 µM [inhibitor, single point].
With `CCOc1ccc(NC(=S)Nc2ccc(C)c([N+](=O)[O-])c2)cc1` the activity change, negative = growth inhibition was inconclusive: -30.4% [inhibitor].
In the case of `Cc1cc(C)c2nc(N3CCCC(C(=O)N4CCC(C(N)=O)CC4)C3)sc2c1` (stereo not drawn), the Potency was inconclusive: 16.4 µM [inhibitor, partial curve].
For `CC(=O)Nc1ccc2nc(CN3CCC(CO)(CCc4ccccc4)CC3)ccc2c1`, the Potency was inconclusive: 16.4 µM [inhibitor, single point].
With `CC(CC(=O)N1CCN(c2ccc(C(F)(F)F)cn2)CC1)n1ccnc1` (stereo not drawn) the Potency was inconclusive: 16.4 µM [inhibitor, partial curve].
For `O=C(N/N=C/c1ccco1)C1CC1c1ccccc1` (stereo not drawn), the “activity change, negative = growth inhibition” value was inactive: -18.6%.
With `CC(C)c1cc(C(=O)NC2CCCc3c2cnn3-c2ccccc2F)no1` (stereo not drawn) the Potency was inconclusive: 18.4 µM [inhibitor, partial curve].
In the case of `CCc1cc(Cl)c(OC)c(C(=O)NC[C@@H]2CCCN2CC)c1O`, the Potency was active: 21.1 µM and active: 25.9 µM.
In the case of `Clc1ccccc1CSc1nncn2c1cc1occc12`, the Potency was inconclusive: 29.1 µM [inhibitor, single point].
With `C=CCn1cc(C(=O)NCCCOCC)c(=O)c2cc(S(=O)(=O)N(CC)CC)ccc21` the “activity change, negative = growth inhibition” value was inactive: -28.7%.
In the case of `O=C(CCCn1c(=O)c2cccn2c2ccccc21)Nc1cccc(Cl)c1`, the Potency was active: 18.4 µM.
For `COc1ccc(C(C(=O)NCc2ccccc2)N(Cc2cccnc2)C(=O)c2snc(C(N)=O)c2N)cc1OC` (stereo not drawn), the “activity change, negative = growth inhibition” value was inactive: -10.3%.
With `CNc1ccc(OC)cc1-n1cnc(-c2ccc([N+](=O)[O-])cc2)c1` the “activity change, negative = growth inhibition” value was inactive: -14%.
In the case of `Cn1ncc2c(NCCc3ccccc3)nc(Cl)nc21`, the Potency was active: 20.6 µM.
With `COc1ccc(NC(=O)C2CCCN(S(=O)(=O)c3ccc(C)cc3)C2)cc1OC` (stereo not drawn) the Potency was inconclusive: 29.1 µM [inhibitor, single point].
With `CCN1CCN(c2cc(C)c3cc(NC(=O)CCC(=O)N4CCN(c5ccccc5)CC4)ccc3n2)CC1` the Potency was inconclusive: 23.1 µM [inhibitor, single point].
For `COc1ccccc1CNC(=O)C1CCCN(S(=O)(=O)c2ccc3c(c2)C(C)(C)C(=O)N3C)C1` (stereo not drawn), the Potency was active: 14.6 µM.
In the case of `COc1ccc(S(=O)(=O)N2CCC(C(=O)Nc3cccc(C(C)=O)c3)CC2)cc1C`, the Potency was inconclusive: 28.2 µM [inhibitor, single point].
For `Cc1cccc(-c2nc3ccc(C(=O)NCCN4CCN(C)CC4)cc3nc2-c2cccc(C)c2)c1`, the Potency was inconclusive: 25.9 µM [inhibitor, single point].
For `COCCNc1ncnc2c1ncn2[C@H]1CN(Cc2ccc3c(c2)OCO3)C[C@@H](CO)O1`, the “activity change, negative = growth inhibition” value was inactive: 0.701%.
With `COc1cc(OC)cc(-c2cc3cc4c(cc3cn2)OCO4)c1` the Potency was active: 0.517 µM.
For `O=C(NCc1ccccc1)C(c1cccnc1)N(Cc1ccco1)C(=O)c1ccccn1` (stereo not drawn), the “activity change, negative = growth inhibition” value was inactive: -9.14%.
For `CCOC(=O)[C@]12CCC=C1N(Cc1ccc(Cl)cc1Cl)C(=O)[C@H](CC(=O)NCc1ccc(OC)c(OC)c1)C2`, the Potency was inconclusive: 29.1 µM [inhibitor, single point].
In the case of `Cc1ccc2nc(C3CCCN(C(=S)Nc4cccc(C)c4C)C3)[nH]c2c1` (stereo not drawn), the Potency was active: 18.4 µM.
In the case of `Nc1nnc(CC(=O)N/N=C/c2ccccc2OCc2ccccc2F)s1`, the Potency was inconclusive: 29.1 µM [inhibitor, single point].
In the case of `CCOc1cc(C2Sc3ccccc3NC3=C2C(=O)c2ccccc23)ccc1O` (stereo not drawn), the Potency was inconclusive: 20.6 µM [inhibitor, single point].
With `Cc1ccc(S(=O)(=O)N2CCC(C(=O)NCc3ccccc3CN3CCCC3)CC2)cc1C` the Potency was inconclusive: 16.4 µM [inhibitor, single point].
For `CCN(CC(=O)Nc1cc(Cl)ccc1C)C(=O)c1cc([N+](=O)[O-])ccc1N1CCOCC1`, the “activity change, negative = growth inhibition” value was inactive: -20%.
In the case of `O=C(CNC(=O)c1ccc2c(c1)OCCO2)N=Nc1c(O)[nH]c2ccccc12`, the “activity change, negative = growth inhibition” value was inactive: 11.5%.
With `COc1ccc(CN2C(=O)C(C)S/C2=N/N=C/c2ccco2)cc1` (stereo not drawn) the Potency was inconclusive: 0.366 µM [inhibitor, partial curve, poor fit].
With `CCOC(=O)c1c[nH]c(=O)c(Br)c1O` the “activity change, negative = growth inhibition” value was inactive: -2.39%.
With `CCOC(=O)c1ccc(NC(=O)CC2C(=O)N(c3ccc(F)cc3)C(=O)N2Cc2ccc(C)cc2)cc1` (stereo not drawn) the Potency was inconclusive: 16.4 µM [inhibitor, single point].
In the case of `COc1cc(C#Cc2c(-c3cncn3C)n(C)c3ccc(-c4ccc5cc[nH]c5c4)cc23)cc(OC)c1`, the Potency was inconclusive: 23.1 µM [inhibitor, single point].
In the case of `CCn1c(SCC(=O)Nc2ccc(C(C)=O)cc2)nc2c([nH]c3ccccc32)c1=O`, the Potency was inconclusive: 23.1 µM [inhibitor, partial curve].
For `CCOC(=O)c1ccccc1NC(=O)CSc1nnc(Cc2cccn2C)n1-c1ccc(C)cc1`, the Potency was inconclusive: 18.4 µM [inhibitor, single point].
